# Assay results as given in PubChem BioAssay AID504332 (National Center for Advancing Translational Sciences (NCATS), 2011).
# About 31,000 (8.9%) of roughly 350,000 compounds were called active. The shares of active, inactive and inconclusive entries below differ from those in the screen. The call rests on the fitted dose curve; in most records, active means well fitted inhibition curve with a large enough effect; inconclusive means small, poorly fitted or top-dose-only effect; inactive means no such curve, though single readings can be large or run the other way. Where the call is inconclusive, the potency comes from a doubtful curve fit.
# Molecular target: Histone-lysine N-methyltransferase EHMT2 (Homo sapiens) (UniProt Q96KQ7)
# Chain of UniProt Q96KQ7 (Q96KQ7 whole entry, looked up): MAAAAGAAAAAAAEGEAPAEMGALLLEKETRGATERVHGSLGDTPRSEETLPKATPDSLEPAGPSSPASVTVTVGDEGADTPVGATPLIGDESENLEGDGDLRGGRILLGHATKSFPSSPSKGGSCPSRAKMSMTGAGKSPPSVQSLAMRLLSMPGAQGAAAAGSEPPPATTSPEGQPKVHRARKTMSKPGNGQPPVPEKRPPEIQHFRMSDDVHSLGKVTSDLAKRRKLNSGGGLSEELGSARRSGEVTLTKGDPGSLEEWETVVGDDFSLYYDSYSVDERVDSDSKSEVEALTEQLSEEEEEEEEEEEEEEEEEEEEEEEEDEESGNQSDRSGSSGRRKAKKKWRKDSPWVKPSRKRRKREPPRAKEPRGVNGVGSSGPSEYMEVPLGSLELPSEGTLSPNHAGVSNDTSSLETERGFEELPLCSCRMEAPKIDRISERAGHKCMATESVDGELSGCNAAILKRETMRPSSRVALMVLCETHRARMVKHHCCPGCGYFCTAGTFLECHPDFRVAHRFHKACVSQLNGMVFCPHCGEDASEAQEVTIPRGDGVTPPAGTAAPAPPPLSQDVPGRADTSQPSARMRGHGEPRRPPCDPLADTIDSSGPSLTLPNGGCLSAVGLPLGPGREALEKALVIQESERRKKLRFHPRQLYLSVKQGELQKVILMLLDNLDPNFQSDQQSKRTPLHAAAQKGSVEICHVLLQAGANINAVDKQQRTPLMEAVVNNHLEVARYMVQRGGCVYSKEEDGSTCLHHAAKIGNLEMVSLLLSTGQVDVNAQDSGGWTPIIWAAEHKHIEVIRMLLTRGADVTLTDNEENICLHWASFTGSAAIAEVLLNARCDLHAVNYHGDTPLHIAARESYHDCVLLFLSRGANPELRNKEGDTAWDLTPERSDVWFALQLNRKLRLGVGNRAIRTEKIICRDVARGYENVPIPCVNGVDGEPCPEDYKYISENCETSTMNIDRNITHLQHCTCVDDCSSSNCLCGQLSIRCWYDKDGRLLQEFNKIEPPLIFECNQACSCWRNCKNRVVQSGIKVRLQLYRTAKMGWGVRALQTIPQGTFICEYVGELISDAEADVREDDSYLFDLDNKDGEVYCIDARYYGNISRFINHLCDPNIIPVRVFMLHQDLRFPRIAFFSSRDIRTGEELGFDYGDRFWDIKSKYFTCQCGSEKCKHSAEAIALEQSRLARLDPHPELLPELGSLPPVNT
# Assay: qHTS Assay for Inhibitors of Histone Lysine Methyltransferase G9a; further: nearly all actives have a fitted effect of over 75% in size
# Conditions: G9a H3K9 monomethylation, AlphaScreen, 2 h; activity, negative = inhibition: at 59 µM (top of the series) unless noted
# In short: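 AlphaScreen read-out: biotin-H3K9 peptide (500 nM) methylation by 20 nM enzyme with 20 uM SAM, 2 h at room temperature after 15 min compound preincubation; anti-monomethyl H3K9 antibody plus donor/acceptor beads, 10 min dark.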
# On the % scale 0 is the no-effect control and ±100 the full control effect; potency means the concentration at half of the fitted maximal effect; tags describe the fitted curve by direction and shape.
Structure (SMILES),Potency,"activity, negative = inhibition"
CC/C(=N\NC(=S)Nc1cccc(C)c1)c1ccccc1,"inconclusive: 50.1 µM [inhibitor, partial curve, poor fit]",–
CCOC(=O)C1(Cc2cccc(OC)c2)CCN(C2CCOCC2)CC1,active: 50.1 µM,–
CCNc1nc(C)cc(COC)c1C#N,"inconclusive: 79.4 µM [inhibitor, partial curve, poor fit]",–
CCC(c1nnnn1C(C)C)N1CCN(C2CCCC2)CC1 (stereo not given),"inconclusive: 89.1 µM [inhibitor, single point]",–
Cc1ccc(S(=O)(=O)NCCOC(=O)Nc2sc(=S)n(C)c2C)cc1,active: 31.6 µM,–
CC(C)C1N=C2c3ccccc3N=C(SCC(=O)c3ccc(O)c(O)c3)N2C1=O (stereo not given),–,inconclusive: -93% [inhibitor]
O=c1[nH]c(-c2ccccc2)c(-c2ccccc2)o1,active: 44.7 µM,–
COc1cccc(CNC(=O)C(=O)NCC(c2ccc3c(c2)OCO3)N2CCOCC2)c1 (stereo not given),inactive,–
CCC(C)NC(=O)CSc1c2c(nc3cc(Cl)ccc13)CCCC2 (stereo not given),"inconclusive: 28.2 µM [inhibitor, partial curve, poor fit]",–
NCCCC[C@@H]1NC(=O)[C@H](CCC(=O)O)NC(=O)c2cc([N+](=O)[O-])cc(I)c2SC[C@@H](C(=O)NCC(N)=O)NC1=O,active: 3.16 µM,–
Cc1[nH]ccc(=O)c1OCc1c(Cl)cccc1Cl,"inconclusive: 6.31 µM [inhibitor, single point]",–
O=C1CN(C(=O)CNC(=O)c2cccc(Cl)c2)c2ccccc2N1,"inconclusive: 5.01 µM [inhibitor, single point]",–
Cn1c(=O)oc2cc(S(=O)(=O)N3CCc4ccccc4C3)ccc21,"inconclusive: 7.94 µM [inhibitor, full curve, poor fit]",–
COC(=O)C1=C(C(=O)OC)N2C=CC=CC2(C)C(C(=O)OC)=C1C(=O)OC (stereo not given),"inconclusive: 0.891 µM [inhibitor, full curve, poor fit]",–
Cc1ccc(NC(=O)c2noc3c2CCCCC3)cc1,inactive,–
CC(C)Oc1ccc(CNC(=O)c2ccc3c(c2)N(C)CCS3)cc1,active: 56.2 µM,–
Cc1ccc2c(CC(=O)N3CCN(S(=O)(=O)c4ccc5c(c4)OCCO5)CC3)coc2c1,"inconclusive: 50.1 µM [inhibitor, partial curve, poor fit]",–
Cc1cc(C)nc(NS(=O)(=O)c2ccc(CC(C)C)cc2)c1,inactive,–
Nc1nnc(SCc2ccc(F)cc2)s1,inactive,–
CCc1nc(N2CCCC2C(=O)O)c2oc3ccccc3c2n1 (stereo not given),–,inconclusive: -56.7% [inhibitor] [at 102 µM]
